In the antibiotic and cytotoxicity screens of Wong et al. (2023):
The list shows a part of the results.

Experiments:
HSkMC = human skeletal muscle cells; test: cytotoxicity call (relative viability < 0.9); conditions: 10 µM
HepG2 = test: cytotoxicity call (relative viability < 0.9); conditions: 10 µM
S. aureus RN4220 = test: growth inhibition call (relative growth <= 0.2); conditions: 50 µM

C[C@H](CO)N1C[C@H](C)[C@@H](CN(C)S(=O)(=O)c2cccs2)Oc2ccc(NS(=O)(=O)c3ccc(F)cc3)cc2C1=O
inactive: cytotoxicity call (HSkMC) | cytotoxicity call (HepG2) | growth inhibition call (S. aureus RN4220)

C[C@H](CO)N1C[C@H](C)[C@H](CN(C)Cc2ccc(C(=O)O)cc2)Oc2ncc(C#CCN(C)C)cc2C1=O
inactive: cytotoxicity call (HSkMC) | cytotoxicity call (HepG2) | growth inhibition call (S. aureus RN4220)

O=c1ccn([C@@H]2O[C@H](COP(=O)(O)OP(=O)(O)OP(=O)(O)OP(=O)(O)OC[C@H]3O[C@@H](n4ccc(=O)[nH]c4=O)[C@H](O)[C@@H]3O)[C@@H](O)[C@H]2O)c(=O)[nH]1
inactive: cytotoxicity call (HSkMC) | cytotoxicity call (HepG2) | growth inhibition call (S. aureus RN4220)

CC(C)NC(=O)Nc1ccc2c(c1)C(=O)N([C@H](C)CO)C[C@@H](C)[C@H](CN(C)Cc1ccc(Oc3ccccc3)cc1)O2
inactive: cytotoxicity call (HSkMC) | cytotoxicity call (HepG2) | growth inhibition call (S. aureus RN4220)

CSc1nc(=O)c(CCO)c(C)[nH]1
inactive: cytotoxicity call (HSkMC) | cytotoxicity call (HepG2) | growth inhibition call (S. aureus RN4220)

C[C@@H]1CN([C@@H](C)CO)C(=O)c2cc(NC(=O)CCC(F)(F)F)ccc2O[C@@H](C)CCCCO[C@H]1CN(C)Cc1ccncc1
inactive: cytotoxicity call (HSkMC) | cytotoxicity call (HepG2) | growth inhibition call (S. aureus RN4220)

O=C(C[C@H]1C[C@H]2c3cc(NS(=O)(=O)c4ccc(F)cc4)ccc3O[C@H]2[C@@H](CO)O1)N1CCOCC1
inactive: cytotoxicity call (HSkMC) | cytotoxicity call (HepG2) | growth inhibition call (S. aureus RN4220)

CC(C)NC(=O)Nc1ccc2c(c1)C(=O)N([C@H](C)CO)C[C@H](C)[C@@H](CN(C)C(=O)NC1CCCCC1)O2
inactive: cytotoxicity call (HSkMC) | cytotoxicity call (HepG2) | growth inhibition call (S. aureus RN4220)

NC(=O)NC(=O)C[C@H]1Nc2ccccc2NC1=O
inactive: cytotoxicity call (HSkMC) | cytotoxicity call (HepG2) | growth inhibition call (S. aureus RN4220)
